Assay results published in patent publication US20240124563A1 (NANJING ZAIMING PHARMACEUTICAL, published 2024).

T1: human MSLN-R1-his protein (human, UniProt Q13421 296-390)
T1 construct: also called hMSLN-R1-his; not shown: histidine tag
T1 chain: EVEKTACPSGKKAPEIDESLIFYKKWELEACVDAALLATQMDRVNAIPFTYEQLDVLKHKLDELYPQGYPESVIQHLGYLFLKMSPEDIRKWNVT

B1: NB148-46 VHH-hFc (Fc fusion)
chain: EVQLVESGGGLVQAGGSLRLSCAASGSTFSSYPMGWYRQAPGKQRELVAAISSGGSTNYADSVKGRFTISRDNAKNTVYLQMNSLKPEDTAVYYCNTRSPRVPNDSWGQGTQVTVSS[human IgG1 Fc with changes not written out]
notes: no linker stated
B2: NB149-81 VHH-hFc (Fc fusion)
chain: EVQLVESGGGLVQAGGALRLSCAASERTFSSSSMGWFRQAPGKEREFVAAINRIGGHIYYADSVKGRFTISKDNAKNTVYLQMSSLKPEDTAVYYCASSRIYSHSARDYDYWGQGTQVTVSS[human IgG1 Fc with changes not written out]
notes: no linker stated
B3: NB149-31 VHH-hFc (Fc fusion)
chain: EVQVVESGGGLVQPGGSLRLSCAASGITFSGNYGGWFRQAPGEQRELVASMSSALGTKYADPVKGRFTISTDTAKNTVDLQMNSLGPEDTAVYYCYARVRLSRGGWGSEYWGQGTQVTVSS[human IgG1 Fc with changes not written out]
notes: no linker stated
B4: NB149-70 VHH-hFc (Fc fusion)
chain: QVQLVESGGGLVQPGGSLRLSCAASGSIFSGNAVAWYRQAPGKEREAVAVITRDGDTKYADSVKGRFTISRYNAKNIAYLQMNSLKPEDTAVYYCNTARGAAVDSWGQGTQVTVSS[human IgG1 Fc with changes not written out]
notes: no linker stated
B5: NB148-35 VHH-hFc (Fc fusion)
chain: EVQVVESGGGLVQPGGSLRLSCGVSGSILALNTMRWYRQTPGNQREWVASIYSSGGSTGYADSVKGRFIISRDSAKNMMSLQMNSLKSEDTAVYYCNVQTPLNVYWGQGTQVTVSS[human IgG1 Fc with changes not written out]
notes: no linker stated
B6: NB148-88 VHH-hFc (Fc fusion)
chain: QLQLVESGGGLVQPGGSHRLSCAVSVSTFTRYAMRWYRQAPGKEREWLTSIYSDGSSAYADSVKDRFTISLDNAKNMLYLQMNSLKPEDTAVYYCNANVDSKAYWGQGTQVTVAS[human IgG1 Fc with changes not written out]
notes: no linker stated
B7: NB148-27 VHH-hFc (Fc fusion)
chain: EVQVVESGGGLVQAGASLRLSCASSGRTISPIAMAWFRQAPGKERELVAGLTWTGRTYYSDSVKGRFTISRDNAKNTVYLQMDSLKFEDTAVYFCAAGDNPDRRGSSWSSSSVYEYWGQGTQVTVSS[human IgG1 Fc with changes not written out]
notes: no linker stated

biological target: T2, human MSLN-FL-his protein (human, UniProt Q13421 296-580); test: ELISA, coated antigen, 0.001 nM antibody
T2 construct: also called hMSLN-FL-his; not shown: histidine tag

| OD450 nm [OD450 nm] | Binder |
| --- | --- |
| 0.05 | B1 |
| 0.05 | B2 |
| 0.05 | B3 |
| 0.05 | B4 |
| 0.05 | B5 |
| 0.05 | B6 |
| 0.05 | B7 |

biological target: T3, human MSLN-R3-his protein (human, UniProt Q13421 487-598); test: ELISA, coated antigen, 0.0001 nM antibody
T3 construct: also called hMSLN-R3-his; not shown: histidine tag

| OD450 nm [OD450 nm] | Binder |
| --- | --- |
| 0.05 | B1 |
| 0.05 | B2 |
| 0.05 | B3 |
| 0.05 | B4 |
| 0.05 | B5 |
| 0.05 | B6 |
| 0.05 | B7 |

biological target: T2, human MSLN-FL-his protein; test: ELISA, coated antigen, 0.01 nM antibody

| OD450 nm [OD450 nm] | Binder |
| --- | --- |
| 0.08 | B1 |
| 0.06 | B2 |
| 0.07 | B3 |
| 0.08 | B4 |
| 0.06 | B5 |
| 0.07 | B6 |
| 0.1 | B7 |

biological target: T3, human MSLN-R3-his protein; test: ELISA, coated antigen, 0 nM antibody (blank)
T3 sequence (Q13421 495-606): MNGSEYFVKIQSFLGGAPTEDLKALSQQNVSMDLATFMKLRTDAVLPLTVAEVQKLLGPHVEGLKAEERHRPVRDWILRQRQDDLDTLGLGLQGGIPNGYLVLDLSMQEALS

| OD450 nm [OD450 nm] | Binder |
| --- | --- |
| 0.05 | B1 |
| 0.05 | B2 |
| 0.05 | B3 |
| 0.05 | B4 |
| 0.05 | B5 |
| 0.05 | B6 |
| 0.05 | B7 |

biological target: T3, human MSLN-R3-his protein; test: ELISA, coated antigen, 0.001 nM antibody

| OD450 nm [OD450 nm] | Binder |
| --- | --- |
| 0.05 | B1 |
| 0.05 | B2 |
| 0.05 | B3 |
| 0.05 | B4 |
| 0.05 | B5 |
| 0.05 | B6 |
| 0.05 | B7 |

biological target: T2, human MSLN-FL-his protein; test: ELISA, coated antigen, 0.2 nM antibody

| OD450 nm [OD450 nm] | Binder |
| --- | --- |
| 2.4 | B1 |
| 2.31 | B2 |
| 2.58 | B3 |
| 2.48 | B4 |
| 2.42 | B5 |
| 2.4 | B6 |
| 2.39 | B7 |

Biological target: T1, human MSLN-R1-his protein
Test: ELISA, coated antigen, 0.2 nM antibody

| OD450 nm [OD450 nm] | Binder |
| --- | --- |
| 1.05 | B1 |
| 0.05 | B2 |
| 1.7 | B3 |
| 1.79 | B4 |
| 0.06 | B5 |
| 0.19 | B6 |
| 1.13 | B7 |

biological target: T3, human MSLN-R3-his protein; test: ELISA, coated antigen, 0.2 nM antibody

| OD450 nm [OD450 nm] | Binder |
| --- | --- |
| 0.05 | B1 |
| 0.05 | B2 |
| 0.05 | B3 |
| 0.05 | B4 |
| 0.05 | B5 |
| 0.05 | B6 |
| 0.05 | B7 |

biological target: T4, human MSLN-R2-his protein (human, UniProt Q13421 391-486); test: ELISA, coated antigen, 0.2 nM antibody
T4 construct: also called hMSLN-R2-his; not shown: histidine tag

| OD450 nm [OD450 nm] | Binder |
| --- | --- |
| 0.07 | B1 |
| 0.08 | B2 |
| 0.08 | B3 |
| 0.09 | B4 |
| 2.27 | B5 |
| 2.18 | B6 |
| 0.06 | B7 |

biological target: T2, human MSLN-FL-his protein; test: ELISA, coated antigen, 20 nM antibody

| OD450 nm [OD450 nm] | Binder |
| --- | --- |
| 2.62 | B1 |
| 2.54 | B2 |
| 2.74 | B3 |
| 2.65 | B4 |
| 2.87 | B5 |
| 2.56 | B6 |
| 2.75 | B7 |

Biological target: T1, human MSLN-R1-his protein
Test: ELISA, coated antigen, 20 nM antibody

| OD450 nm [OD450 nm] | Binder |
| --- | --- |
| 1.69 | B1 |
| 0.06 | B2 |
| 2.05 | B3 |
| 2.25 | B4 |
| 0.14 | B5 |
| 0.25 | B6 |
| 2 | B7 |

biological target: T3, human MSLN-R3-his protein; test: ELISA, coated antigen, 20 nM antibody

| OD450 nm [OD450 nm] | Binder |
| --- | --- |
| 0.05 | B1 |
| 0.05 | B2 |
| 0.06 | B3 |
| 0.05 | B4 |
| 0.11 | B5 |
| 0.06 | B6 |
| 0.07 | B7 |

biological target: T4, human MSLN-R2-his protein; test: ELISA, coated antigen, 20 nM antibody
T4 sequence (Q13421 other isoform, or with tags, fused parts or gaps): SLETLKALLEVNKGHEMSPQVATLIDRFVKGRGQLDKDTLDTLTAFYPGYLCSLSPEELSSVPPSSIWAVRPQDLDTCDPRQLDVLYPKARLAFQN

| OD450 nm [OD450 nm] | Binder |
| --- | --- |
| 0.17 | B1 |
| 0.12 | B2 |
| 0.14 | B3 |
| 0.14 | B4 |
| 2.68 | B5 |
| 2.45 | B6 |
| 0.12 | B7 |

biological target: T2, human MSLN-FL-his protein; test: ELISA, coated antigen, 0.0001 nM antibody

| OD450 nm [OD450 nm] | Binder |
| --- | --- |
| 0.05 | B1 |
| 0.04 | B2 |
| 0.05 | B3 |
| 0.05 | B4 |
| 0.05 | B5 |
| 0.05 | B6 |
| 0.05 | B7 |

biological target: T2, human MSLN-FL-his protein; test: ELISA, coated antigen, 10 nM antibody

| OD450 nm [OD450 nm] | Binder |
| --- | --- |
| 2.63 | B1 |
| 2.09 | B2 |
| 2.14 | B3 |
| 2.16 | B4 |
| 2.61 | B5 |
| 2.67 | B6 |
| 2.69 | B7 |

biological target: T3, human MSLN-R3-his protein; test: ELISA, coated antigen, 0.1 nM antibody

| OD450 nm [OD450 nm] | Binder |
| --- | --- |
| 0.05 | B1 |
| 0.05 | B2 |
| 0.05 | B3 |
| 0.05 | B4 |
| 0.05 | B5 |
| 0.05 | B6 |
| 0.05 | B7 |

biological target: T2, human MSLN-FL-his protein; test: ELISA, coated antigen, 100 nM antibody

| OD450 nm [OD450 nm] | Binder |
| --- | --- |
| 3.21 | B1 |
| 2.37 | B2 |
| 2.63 | B3 |
| 2.3 | B4 |
| 2.56 | B5 |
| 2.88 | B6 |
| 2.53 | B7 |

biological target: T2, human MSLN-FL-his protein; test: ELISA, coated antigen, 1 nM antibody

| OD450 nm [OD450 nm] | Binder |
| --- | --- |
| 1.74 | B1 |
| 1.25 | B2 |
| 1.4 | B3 |
| 1.61 | B4 |
| 1.82 | B5 |
| 1.67 | B6 |
| 1.98 | B7 |

biological target: T3, human MSLN-R3-his protein; test: ELISA, coated antigen, 1 nM antibody

| OD450 nm [OD450 nm] | Binder |
| --- | --- |
| 0.05 | B1 |
| 0.04 | B2 |
| 0.05 | B3 |
| 0.05 | B4 |
| 0.05 | B5 |
| 0.05 | B6 |
| 0.05 | B7 |

biological target: T2, human MSLN-FL-his protein; test: ELISA, coated antigen, 0 nM antibody (blank)

| OD450 nm [OD450 nm] | Binder |
| --- | --- |
| 0.05 | B1 |
| 0.05 | B2 |
| 0.05 | B3 |
| 0.05 | B4 |
| 0.05 | B5 |
| 0.05 | B6 |
| 0.05 | B7 |

biological target: T3, human MSLN-R3-his protein; test: ELISA, coated antigen, 100 nM antibody

| OD450 nm [OD450 nm] | Binder |
| --- | --- |
| 0.05 | B1 |
| 0.06 | B2 |
| 0.05 | B3 |
| 0.05 | B4 |
| 0.05 | B5 |
| 0.05 | B6 |
| 0.05 | B7 |

biological target: T3, human MSLN-R3-his protein; test: ELISA, coated antigen, 10 nM antibody

| OD450 nm [OD450 nm] | Binder |
| --- | --- |
| 0.05 | B1 |
| 0.05 | B2 |
| 0.05 | B3 |
| 0.05 | B4 |
| 0.05 | B5 |
| 0.05 | B6 |
| 0.05 | B7 |

biological target: T2, human MSLN-FL-his protein; test: ELISA, coated antigen, 0.1 nM antibody

| OD450 nm [OD450 nm] | Binder |
| --- | --- |
| 0.35 | B1 |
| 0.22 | B2 |
| 0.28 | B3 |
| 0.39 | B4 |
| 0.24 | B5 |
| 0.27 | B6 |
| 0.44 | B7 |

biological target: T3, human MSLN-R3-his protein; test: ELISA, coated antigen, 0.01 nM antibody

| OD450 nm [OD450 nm] | Binder |
| --- | --- |
| 0.05 | B1 |
| 0.05 | B2 |
| 0.05 | B3 |
| 0.05 | B4 |
| 0.05 | B5 |
| 0.05 | B6 |
| 0.05 | B7 |
